This is one part of the list.
B1: chr11:77336104:77336105:-_ENSG00000074201_ENST00000525064|hu_mus|hu_hu_hu_mus_False|18_68 (ssRNA)
RNA: GGGAGUUCUACAGUCCGACGAUCCUCACACAUUGCUGUGAACAUCGCCUCCAAUGCUGACUUAUCACUAGGCACAAAUCGAAAUUCAGAAAUGGGUUCAACAUCAUCAUUGUCUUCUUCCUCUUCUUCAGAGAGAGGUUCUUUCAACAGAGGAUUGAGCAUCA
B2: chr3:31621302:31621303:+_ENSG00000163527_ENST00000295770|hu_hu|FALSE|FALSE (ssRNA)
RNA: GGGAGUUCUACAGUCCGACGAUCUAAAAUCCAAUGAAUAAGGCCAGCGGUUAUCAUCAACCCUGGGUAAACAGUACCACCUACUAUUCUUCCUAGUGGAUACCAUGCUCUUUCAUCAAACCAAUUUAAAAAUUCAUAGAACCCCAACAGAGGAUUGAGCAUCA
B3: 4383590_4383710_126_3pUTR_ENSMUSG00000041124_ENSMUST00000047173|mouse|control|control (ssRNA)
RNA: GGGAGUUCUACAGUCCGACGAUCGCUUUUCCUUUUUCUUUUCAAUUGCUUCAUUUUUAAAAAUCCAGUGCAGAUUUUAACAGCAAAAAGAGCUGUGCAAAGAAUGUGAAGAGUGUGCCACAAACCCAAGGCUUUGUUGGCUCUCAACAGAGGAUUGAGCAUCA
B4: chr1:193053832:193053833:+_ENSG00000116747_ENST00000432079|hu_hu|motif|central (ssRNA)
RNA: GGGAGUUCUACAGUCCGACGAUCGAUCACUGAUGGCAAUGGAUCUCUGGAUCGUGCUGCUGCUUAUGGUUAAAUCAUAUCGGAUGUGAAAUUUCGAAUUACAUCCAGAGCUCCAGUAUCAAAGCCGCACAUAUCCAACAUGCCCAACAGAGGAUUGAGCAUCA
B5: chr20:57485947:57485948:+_ENSG00000087460_ENST00000306090|hu_hu|motif|central (ssRNA)
RNA: GGGAGUUCUACAGUCCGACGAUCGGGGGUUUCGCAAAAUCACUCGGGGGAAGGGAAAGGUUGCUUUGUUAAUCAUGCCCGGUGGUGGGUGAUUAACUGCUUGUACAAUUACGUUUCACUUUUAAUUAAUUGUGCUUAAGGCUUCAACAGAGGAUUGAGCAUCA
B6: chr4:84185219:84185220:-_ENSG00000173085_ENST00000439031|hu_hu|motif|central (ssRNA)
RNA: GGGAGUUCUACAGUCCGACGAUCUCUGUGACAAGGGGGAAUUUUGCUAGCAAAUAAGUAAAAUCCAGGUAAAUAUGCUCGGAAUCUUCAUCUUCAGGUUCUUAAUUCUUUAACAUAUUGUAUCAGAUUUUGUAUUCAAAUCUACAACAGAGGAUUGAGCAUCA
B7: chrX:98510588:98510589:+_ENSMUSG00000031302_ENSMUST00000065858|mus_mus|motif|central (ssRNA)
RNA: GGGAGUUCUACAGUCCGACGAUCAUGAGACAGUGUAAGGAGACUGACACAGGAUGCACCGAUGCCAGAGCCAAAGACAGUAAUUCGGCGGGGAUCUCCUCCAAAGAAGGCAAUAUUCUCACUCACCCAGCGAAGGGCCUGGAUCAACAGAGGAUUGAGCAUCA
B8: 42876026_42876146_3379_3pUTR_ENSG00000023516_ENST00000025301|human|control|control (ssRNA)
RNA: GGGAGUUCUACAGUCCGACGAUCUUUAUCUUCCACAUGCAAACCAUCUACACAGGUAAGUGCUGUAGAUGAGAAAGUAUGUGAAUGAGGAAAGGGGUUUUCCUGUCCAAAAGACAAGGCCUCAAGUGAUGUACUAUUCAAGUUCAACAGAGGAUUGAGCAUCA
B9: 4793058_4793178_250_3pUTR_ENSG00000120158_ENST00000381750|human|control|control (ssRNA)
RNA: GGGAGUUCUACAGUCCGACGAUCGGGGCGCCCGCUCAGGGUAGACAGGACCAGACGUUGGCGCAAGAAGUUGCACCCUGCGUAGCUGAGGGAGUGCGCCUGAGUCGCCAUGUGCGCGCUCUCCGAAGAGACGUGAGCAGCCCGCAACAGAGGAUUGAGCAUCA
B10: chr1:165664616:165664617:-_ENSG00000143149_ENST00000354775|hu_mus|FALSE|FALSE (ssRNA)
RNA: GGGAGUUCUACAGUCCGACGAUCCUUUGCAUUCUCAACGGCCAAGUUUACUUCCUUUUCUCCUGAACACGCGAAAGUGGCAAUCACUCGGCCGGUGGCUGGCUCGAACGCUUUCUCCGUGCCGGAAGCAUCCACCGGCUCCACCAACAGAGGAUUGAGCAUCA
B11: chr17:31789506:31789507:-_ENSMUSG00000061613_ENSMUST00000166526|mus_hu|FALSE|FALSE (ssRNA)
RNA: GGGAGUUCUACAGUCCGACGAUCAGACUGGGAAGAGUUUUGAGGGUUACGGUAAAUGUUCAAGAGGGCAAUGGUCUGGCUAAACGUCGGUUUAUUGUGCAACCGAGAGCACCUGUCUCCAUGACGACAUGCUCCAAUUUUGAACAACAGAGGAUUGAGCAUCA
B12: chr5:36177297:36177298:+_ENSG00000145604_ENST00000274255|hu_hu|motif|central (ssRNA)
RNA: GGGAGUUCUACAGUCCGACGAUCCUUUAGCAUGACACUAUCACUUAAGUCUAGAUGGACAAGAUUGGGGCAUCUUCGGACGGAAGUAGAGAGAUCUGAUUUCUGGAGAUUCUUUCUGUAGCCGCUAAGAUUCAGCUGGGUGAUCAACAGAGGAUUGAGCAUCA
B13: chr2:32086683:32086684:+_ENSMUSG00000039262_ENSMUST00000036691|mus_hu|FALSE|FALSE (ssRNA)
RNA: GGGAGUUCUACAGUCCGACGAUCCAGAGGCUAGAGAUGGAAGGGAGCGGAGGGGCUGGCAAGAAACAUAUAAAAGUUCAGCUAUACACAUGGAGCUUGCGUUUUUGUUUUCUUUUCCUUUCCCCUUUGUAAAAACCUUGGCUACAACAGAGGAUUGAGCAUCA
B14: chr12:125510211:125510212:+_ENSG00000184992_ENST00000341446|hu_mus|FALSE|FALSE (ssRNA)
RNA: GGGAGUUCUACAGUCCGACGAUCUAUCCGACUACACAGCUAACAGGGGGUAUAUCCGUUGUUUAAAAACUGCUUUCCCACUGGUGAUCUACGAAAGUGCUCUCUCCUCCAGUGGCUCCUAAGGUCGACACACAGUGGGAAAUACAACAGAGGAUUGAGCAUCA
B15: 87408211_87419820_547_CDS_ENSMUSG00000024145_ENSMUST00000024957|mouse|control|control (ssRNA)
RNA: GGGAGUUCUACAGUCCGACGAUCUGUAGUGAUCUGAAGACUAUUCUCCCAAAUAGAUGUAACUCCAUUUCUACUGAAAACUCUCAGCCAUGCUUUGAGGUUUGGUCCUAACAAACAGAGACAAGGUACUGUAGUAAAAGUAGACAACAGAGGAUUGAGCAUCA
B16: chr2:198351390:198351391:-_ENSG00000144381_ENST00000345042|hu_hu|hu_hu_hu_mus_False|1_18 (ssRNA)
RNA: GGGAGUUCUACAGUCCGACGAUCUCAUUCCCACCCUCCACAGAAAGGCUGCUUCUGAACUCUCAUGUGGUGACACAGCGCUACAGUCCUGAUGCUCACAGAACAGUAGAGAUGCCUCCUCAGUGAUAGUUGAAAGCAGCAGUACAACAGAGGAUUGAGCAUCA
B17: chr9:95013113:95013114:-_ENSG00000196305_ENST00000443024|hu_hu|hu_hu_hu_mus_False|1_108 (ssRNA)
RNA: GGGAGUUCUACAGUCCGACGAUCCUCAGUGAGAAAAGGCGUGUAAGGGGCCAUCAGUCUGCACAGAGAAAGCAGGACACUGAACAGUGUCUCCAGAGCCAUGACACAGUCUUCCACCCCACUCUCACCCUUUAACCUUCUGCGCAACAGAGGAUUGAGCAUCA
B18: chr7:149068622:149068623:-_ENSMUSG00000025139_ENSMUST00000001950|mus_hu|mus_mus_mus_hu_False|28_68 (ssRNA)
RNA: GGGAGUUCUACAGUCCGACGAUCGUGAGGCCUCUGAGUGUGGCUUGUGGUCUGUCCUGGGUUAGAGCUGCUGGUAACACGGAACAUACCAUCUAGAACGUUCCAGUCUGCCUGACUACCUUCAUUCCCAAUGGAGAAGAAAUCCAACAGAGGAUUGAGCAUCA
B19: chr4:107908409:107908410:-_ENSMUSG00000034636_ENSMUST00000043616|mus_hu|FALSE|FALSE (ssRNA)
RNA: GGGAGUUCUACAGUCCGACGAUCACUGUAGAAUCUCAAGCACAAGUAAGUUCAAACACUGAAAGAUGUGGAAAAUUUCCUAAAAGGCAAUGAUAAAGGAAGAGACCCUUCUUGACUCAUAAGUUUAAAAUCACAAGACAAAUUCAACAGAGGAUUGAGCAUCA
B20: chr14:103802106:103802107:+_ENSG00000100664_ENST00000558506|perfect_dup|FALSE|FALSE (ssRNA)
RNA: GGGAGUUCUACAGUCCGACGAUCGAGAUCUUUGAUUGCAACUUUUUGGUAUCUUCUGUCUGGAGAAGAAGGGAUGACAUAAACGACUGCAAGAGUUCUCGGUCUCUGACAUGAAAAAAUUUUCGCCACUGAGGCUGUAAGCUUCAACAGAGGAUUGAGCAUCA
B21: chr18:56819859:56819860:+_ENSG00000166562_ENST00000588875|hu_mus|hu_hu_hu_mus_True|8_108 (ssRNA)
RNA: GGGAGUUCUACAGUCCGACGAUCAACUUUGAUUACUCUGUGAACUAUCGGAAUGUCUCUUCCUUCAACCUUAAAAACAACUAUUUCACCAGCUCUGAUGGGGUCCUCCCGGAAAUUCGUGAGGAACAGGAGGUCUCCUCUGUGCAACAGAGGAUUGAGCAUCA
B22: chr3:121486967:121486968:-_ENSMUSG00000028127_ENSMUST00000029770|mus_hu|motif|central (ssRNA)
RNA: GGGAGUUCUACAGUCCGACGAUCUCCAAUUGCACUCGUUAACUUAAAGAUAUACAAAACUAUGUCUAAAAAUGGCUUACGGAGAUUUGAAUACAGAUCGACUACACUGUUACAAAAUUUUUCUACAUCUUGUGUAAGCAGCUGCAACAGAGGAUUGAGCAUCA

Each binder was assayed against T1, UNK ZnF1-3 (human, UniProt Q9C0B0 31-174) (assay: nsRBNS (natural sequence RNA bind-n-seq); RBNS binding buffer (assumed for nsRBNS): 25 mM Tris pH 7.5, 150 mM KCl, 3 mM MgCl2, 0.01% Triton X-100, 500 ug/ml BSA, 20 U/ml SUPERase-In, 4 C; UNK is unkempt and MSI1 is Musashi-1; names of the RNAs are library labels; protein concentration not given here; high values mean tight binding).
T1 sequence: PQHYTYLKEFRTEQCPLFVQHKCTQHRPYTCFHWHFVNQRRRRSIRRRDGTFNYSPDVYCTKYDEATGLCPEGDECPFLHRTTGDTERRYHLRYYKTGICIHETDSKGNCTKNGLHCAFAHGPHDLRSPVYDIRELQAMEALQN

Question: How did the binding signal turn out when B1 was run?
Answer: 0.838 enrichment R

Question: How did the binding signal turn out when B2 was run?
Answer: 1.29 enrichment R

Question: Which binding signal does the source give for B3 here?
Answer: 1.15 enrichment R

Question: For B4, which binding signal is on record?
Answer: 0.864 enrichment R

Question: B5 was tested. Which binding signal did it give?
Answer: 0.836 enrichment R

Question: Which binding signal does the source give for B6 here?
Answer: 0.312 enrichment R

Question: How did the binding signal turn out when B7 was run?
Answer: 1.21 enrichment R

Question: With B8 as the binder, how does the binding signal read?
Answer: 0.594 enrichment R

Question: Which binding signal does the source give for B9 here?
Answer: 0.563 enrichment R

Question: B10 was tested. Which binding signal did it give?
Answer: 0.642 enrichment R

Question: For B11, which binding signal is on record?
Answer: 1.24 enrichment R

Question: With B12 as the binder, how does the binding signal read?
Answer: 0.932 enrichment R

Question: With B13 as the binder, how does the binding signal read?
Answer: 1.5 enrichment R

Question: With B14 as the binder, how does the binding signal read?
Answer: 0.631 enrichment R

Question: With B15 as the binder, how does the binding signal read?
Answer: 1.11 enrichment R

Question: B16 was tested. Which binding signal did it give?
Answer: 0.964 enrichment R

Question: With B17 as the binder, how does the binding signal read?
Answer: 1.07 enrichment R

Question: B18 was tested. Which binding signal did it give?
Answer: 0.677 enrichment R

Question: B19 was tested. Which binding signal did it give?
Answer: 1.06 enrichment R

Question: With B20 as the binder, how does the binding signal read?
Answer: 0.78 enrichment R

Question: How did the binding signal turn out when B21 was run?
Answer: 0.671 enrichment R

Question: With B22 as the binder, how does the binding signal read?
Answer: 0.679 enrichment R
